The text below walks through data of a collection of fitness landscapes (doi:10.1016/j.celrep.2020.107928).

Over roughly 81,000 sequences, “one-hybrid fitness for binding NBS DNA” has its median near -0.1; the highest 2% begin near 0.36. This is one part of the list.

The labels stand for the following.
B1: Caulobacter ParB omega fusion; a variant is named by its letters at X, in order, B8GW30 (parent)
chain: MESVVVGEPGMSEGRRGLGRGLSALLGEVDAAPAQAPGEQLGGSREAPIEILQRNPDQPRRTFREEDLEDLSNSIREKGVLQPILVRPSPDTAGEYQIVAGERAWRAAQRAGLKTVPIMVRELDDLAVLEIGIIENVQRADLNVLEEALSYKVLMEKFERTQENIAQTIGKSXSHVANXMRLLXLPDEVQSYLVSGELTAXHARAIAAAADPVALAKQIIEGGLSVRETEALARKAPNLSAGKSKGGRPPRVKDTDTQALESDLSSVLGLDVSIDHRGSTGTLTITYATLEQLDDLCNRLTRGI

This test covers variants of B1. The test is described as follows: one-hybrid fitness for binding NBS DNA (the Noc-binding site; scaled: cognate 1, non-cognate 0); higher = stronger binding. As to conditions: with NBS DNA site. The method, boiled down:
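The reporter was HIS3, with the binding site 19 bp from the promoter, in E. coli USO used for bacterial one-hybrid selection of Caulobacter ParB libraries with four specificity codons randomised. Growth was on M9 lacking histidine, with 0.1 mM IPTG and 5 mM 3-AT, for 48 hours at 37°C. Illumina sequencing covered plasmids before and after selection; three replicate libraries were pooled and variants with under 10 reads dropped. A fitness score is the log change in variant-to-wild-type read ratio, rescaled to the cognate and non-cognate references.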
As to DGPI, the “one-hybrid fitness for binding NBS DNA” value was at most 0.2. Regarding APIH, the “one-hybrid fitness for binding NBS DNA” value was at most 0.2. In the case of NKVG it was at most 0.2; in that of SELY, at most 0.2; in that of GERD, at most 0.2. For MRDT, the “one-hybrid fitness for binding NBS DNA” value was at most 0.2.

Consider KQSG, for which the “one-hybrid fitness for binding NBS DNA” value is at most 0.2. Consider FIQR, for which the “one-hybrid fitness for binding NBS DNA” value was at most 0.2.

Turning to RIDG, the “one-hybrid fitness for binding NBS DNA” value was at most 0.2. Consider CKIG, for which the “one-hybrid fitness for binding NBS DNA” value was at most 0.2. As to SPTS, the “one-hybrid fitness for binding NBS DNA” value was at most 0.2. The figure for RWSE is at most 0.2; for YAVI it is at most 0.2; for ENKN it is at most 0.2.

As to MRPR, the “one-hybrid fitness for binding NBS DNA” value was at most 0.2. The figure for PHVV is at most 0.2; for NLGR it is at most 0.2; for QTIT it is 0.522. In the case of DPKS it was at most 0.2; in that of RCYC, at most 0.2. In the case of RKDV, the “one-hybrid fitness for binding NBS DNA” value was at most 0.2. Turning to MTVA, the “one-hybrid fitness for binding NBS DNA” value is at most 0.2. In the case of LSFS it was at most 0.2. In the case of NHAS it was at most 0.2. The figure for FFAG is at most 0.2; for YPLK it is at most 0.2; for RRPI it is at most 0.2.

Regarding EVDT, the “one-hybrid fitness for binding NBS DNA” value is at most 0.2. In the case of RDET it was at most 0.2; in that of NMRA, at most 0.2. The figure for PGTF is at most 0.2. As to MCGS, the “one-hybrid fitness for binding NBS DNA” value is at most 0.2. With ERGW, the “one-hybrid fitness for binding NBS DNA” value was at most 0.2. The figure for HQTV is at most 0.2; for AAYG it is at most 0.2. The figure for ELWG is at most 0.2; for RTLQ it is at most 0.2. In the case of ALLV it was at most 0.2; in that of EQAS, at most 0.2. For CNWT, the “one-hybrid fitness for binding NBS DNA” value is at most 0.2. Turning to PCKT, the “one-hybrid fitness for binding NBS DNA” value is at most 0.2.

For the variant QSRY, the “one-hybrid fitness for binding NBS DNA” value turned out to be 0.505. The figure for NPGR is at most 0.2; for SFLA it is at most 0.2; for LHFR it is at most 0.2. In the case of PITF it was at most 0.2. On to RKKG, for which the “one-hybrid fitness for binding NBS DNA” value was 0.227. Turning to MLET, the “one-hybrid fitness for binding NBS DNA” value was at most 0.2. RVYI: the “one-hybrid fitness for binding NBS DNA” value was at most 0.2. In the case of CFYV it was at most 0.2; in that of SDIC, at most 0.2. In the case of ESTW it was at most 0.2. PQHK: the “one-hybrid fitness for binding NBS DNA” value was at most 0.2. Regarding WVRA, the “one-hybrid fitness for binding NBS DNA” value is at most 0.2. The figure for RPED is at most 0.2; for GVVA it is at most 0.2. Consider SMTY, for which the “one-hybrid fitness for binding NBS DNA” value is at most 0.2. With QVQH, the “one-hybrid fitness for binding NBS DNA” value is at most 0.2. Consider QQTE, for which the “one-hybrid fitness for binding NBS DNA” value was at most 0.2. In the case of LYTY it was at most 0.2; in that of ECRC, at most 0.2. QEVE: the “one-hybrid fitness for binding NBS DNA” value is at most 0.2. The figure for GDVT is at most 0.2. Regarding QLCW, the “one-hybrid fitness for binding NBS DNA” value was at most 0.2.

As for PCMC, the “one-hybrid fitness for binding NBS DNA” value is at most 0.2.

As for RHGR, the “one-hybrid fitness for binding NBS DNA” value worked out at 0.403. In the case of PFAV it was at most 0.2; in that of DAMR, at most 0.2; in that of RTTW, at most 0.2. The figure for QNDC is at most 0.2; for RQGS it is 0.408.

On to PQSS, for which the “one-hybrid fitness for binding NBS DNA” value was at most 0.2. In the case of TLAK it was at most 0.2; in that of TQFR, at most 0.2; in that of ADVF, at most 0.2. As to VTHF, the “one-hybrid fitness for binding NBS DNA” value is at most 0.2. On to SLLY, for which the “one-hybrid fitness for binding NBS DNA” value was at most 0.2.

TMRI: the “one-hybrid fitness for binding NBS DNA” value was at most 0.2. In the case of KYSV it was at most 0.2; in that of NIWT, at most 0.2. In the case of LHWL it was at most 0.2; in that of FWFG, at most 0.2. The figure for KNIL is at most 0.2; for ERFA it is at most 0.2; for VRYC it is at most 0.2. With PQVE, the “one-hybrid fitness for binding NBS DNA” value is at most 0.2. In the case of CYMT it was at most 0.2; in that of KMPS, at most 0.2. The figure for PIGS is at most 0.2; for VDHT it is at most 0.2. The figure for RIIN is at most 0.2. As for RESN, the “one-hybrid fitness for binding NBS DNA” value is at most 0.2.

In the case of GAGL, the “one-hybrid fitness for binding NBS DNA” value is at most 0.2. As for CVPG, the “one-hybrid fitness for binding NBS DNA” value was at most 0.2. In the case of ALSY it was at most 0.2. The figure for NNYL is at most 0.2; for ARCL it is at most 0.2. RQIM: the “one-hybrid fitness for binding NBS DNA” value is at most 0.2. The figure for WRAV is at most 0.2; for PLWH it is at most 0.2; for RAWS it is 0.262.

HKSY: the “one-hybrid fitness for binding NBS DNA” value is at most 0.2.

As for VVLP, the “one-hybrid fitness for binding NBS DNA” value was at most 0.2. With HSQW, the “one-hybrid fitness for binding NBS DNA” value is at most 0.2. As for WAPY, the “one-hybrid fitness for binding NBS DNA” value was at most 0.2. For the variant KGRR, the “one-hybrid fitness for binding NBS DNA” value was at most 0.2. For the variant TPVF, the “one-hybrid fitness for binding NBS DNA” value is at most 0.2. In the case of YITC, the “one-hybrid fitness for binding NBS DNA” value is at most 0.2. In the case of SMAK it was at most 0.2; in that of TNDF, at most 0.2. In the case of QPFA it was at most 0.2; in that of QKFP, at most 0.2; in that of QMMF, at most 0.2. Consider ARMM, for which the “one-hybrid fitness for binding NBS DNA” value is at most 0.2. Regarding ADHG, the “one-hybrid fitness for binding NBS DNA” value is at most 0.2. In the case of PCKG it was at most 0.2; in that of EHDC, at most 0.2.

For TSGE, the “one-hybrid fitness for binding NBS DNA” value is at most 0.2.

With CGYF, the “one-hybrid fitness for binding NBS DNA” value is at most 0.2.

As to TPRN, the “one-hybrid fitness for binding NBS DNA” value is at most 0.2. The figure for QTQF is at most 0.2. On to NYIG, for which the “one-hybrid fitness for binding NBS DNA” value is at most 0.2. The figure for ECLS is at most 0.2; for HKAS it is at most 0.2. The figure for CCHL is at most 0.2; for CVAR it is at most 0.2; for HVTV it is at most 0.2. On to CDKA, for which the “one-hybrid fitness for binding NBS DNA” value was at most 0.2. In the case of ITYW it was at most 0.2. For ERGV, the “one-hybrid fitness for binding NBS DNA” value is at most 0.2. The figure for TANH is at most 0.2; for NMTY it is at most 0.2; for LPLH it is at most 0.2.

Take TMMS: the “one-hybrid fitness for binding NBS DNA” value is at most 0.2. The figure for IYNM is at most 0.2; for QGVP it is at most 0.2; for CLRS it is at most 0.2. In the case of WSVC it was at most 0.2; in that of GWRK, at most 0.2.

As for QTIC, the “one-hybrid fitness for binding NBS DNA” value was at most 0.2. In the case of RMMG it was at most 0.2; in that of HPDE, at most 0.2. Turning to TQHL, the “one-hybrid fitness for binding NBS DNA” value was at most 0.2. As for CKPS, the “one-hybrid fitness for binding NBS DNA” value was at most 0.2. The figure for GHNG is at most 0.2; for QNPI it is at most 0.2; for SFLS it is at most 0.2. The figure for ALFA is at most 0.2; for KLKE it is at most 0.2; for AITV it is at most 0.2. SFQI: the “one-hybrid fitness for binding NBS DNA” value was at most 0.2. The figure for WIWG is at most 0.2; for CPLD it is at most 0.2.
